{
  "source": "paper PMC9911399",
  "about": "“Two distinct binding modes provide the RNA-binding protein RbFox with extraordinary sequence specificity”",
  "binders": {"B1": {"name": "GCCUUAA (DNA:RNA)", "RNA": "GGGAGACCGGAAUUCAGAUUGUCCGCCUUAAUUAAAUCCCGUCGUAGCCACCA", "DNA 1": "CAATCTGAATTCCGGTCTCCC", "DNA 2": "TGGTGGCTACGACGGGATT"}, "B2": {"name": "UGGCGUA (DNA:RNA)", "RNA": "B1 RNA with G25U, C26G, C27G, U28C, U29G, A30U", "DNA 1": "CAATCTGAATTCCGGTCTCCC", "DNA 2": "TGGTGGCTACGACGGGATT"}, "B3": {"name": "UGUUUGG (DNA:RNA)", "RNA": "B1 RNA with G25U, C26G, C27U, A30G, A31G", "DNA 1": "CAATCTGAATTCCGGTCTCCC", "DNA 2": "TGGTGGCTACGACGGGATT"}, "B4": {"name": "UCAAAUG (DNA:RNA)", "RNA": "B1 RNA with G25U, C27A, U28A, U29A, A30U, A31G", "DNA 1": "CAATCTGAATTCCGGTCTCCC", "DNA 2": "TGGTGGCTACGACGGGATT"}, "B5": {"name": "AGUGGUG (DNA:RNA)", "RNA": "GGGAGACCGGAAUUCAGAUUGUCCAGUGGUGUUAAAUCCCGUCGUAGCCACCA", "DNA 1": "CAATCTGAATTCCGGTCTCCC", "DNA 2": "TGGTGGCTACGACGGGATT"}, "B6": {"name": "AUAUAUC (DNA:RNA)", "RNA": "B5 RNA with G26U, U27A, G28U, G29A, G31C", "DNA 1": "CAATCTGAATTCCGGTCTCCC", "DNA 2": "TGGTGGCTACGACGGGATT"}, "B7": {"name": "UCUUUGU (DNA:RNA)", "RNA": "B1 RNA with G25U, C27U, A30G, A31U", "DNA 1": "CAATCTGAATTCCGGTCTCCC", "DNA 2": "TGGTGGCTACGACGGGATT"}, "B8": {"name": "CCUAUAC (DNA:RNA)", "RNA": "B1 RNA with G25C, C27U, U28A, A31C", "DNA 1": "CAATCTGAATTCCGGTCTCCC", "DNA 2": "TGGTGGCTACGACGGGATT"}, "B9": {"name": "ACAUAAU (DNA:RNA)", "RNA": "B1 RNA with G25A, C27A, U29A, A31U", "DNA 1": "CAATCTGAATTCCGGTCTCCC", "DNA 2": "TGGTGGCTACGACGGGATT"}, "B10": {"name": "GUUGCAG (DNA:RNA)", "RNA": "B5 RNA with A25G, G26U, G29C, U30A", "DNA 1": "CAATCTGAATTCCGGTCTCCC", "DNA 2": "TGGTGGCTACGACGGGATT"}, "B11": {"name": "AUCAAGU (DNA:RNA)", "RNA": "B5 RNA with G26U, U27C, G28A, G29A, U30G, G31U", "DNA 1": "CAATCTGAATTCCGGTCTCCC", "DNA 2": "TGGTGGCTACGACGGGATT"}, "B12": {"name": "AUACUCG (DNA:RNA)", "RNA": "B5 RNA with G26U, U27A, G28C, G29U, U30C", "DNA 1": "CAATCTGAATTCCGGTCTCCC", "DNA 2": "TGGTGGCTACGACGGGATT"}, "B13": {"name": "CUUCCUU (DNA:RNA)", "RNA": "B5 RNA with A25C, G26U, G28C, G29C, G31U", "DNA 1": "CAATCTGAATTCCGGTCTCCC", "DNA 2": "TGGTGGCTACGACGGGATT"}, "B14": {"name": "UUAAAUC (DNA:RNA)", "RNA": "B5 RNA with A25U, G26U, U27A, G28A, G29A, G31C", "DNA 1": "CAATCTGAATTCCGGTCTCCC", "DNA 2": "TGGTGGCTACGACGGGATT"}, "B15": {"name": "AGUUAGA (DNA:RNA)", "RNA": "B5 RNA with G28U, G29A, U30G, G31A", "DNA 1": "CAATCTGAATTCCGGTCTCCC", "DNA 2": "TGGTGGCTACGACGGGATT"}, "B16": {"name": "AGCUACA (DNA:RNA)", "RNA": "B1 RNA with G25A, C26G, U29A, A30C", "DNA 1": "CAATCTGAATTCCGGTCTCCC", "DNA 2": "TGGTGGCTACGACGGGATT"}, "B17": {"name": "GAAUUGU (DNA:RNA)", "RNA": "B1 RNA with C26A, C27A, A30G, A31U", "DNA 1": "CAATCTGAATTCCGGTCTCCC", "DNA 2": "TGGTGGCTACGACGGGATT"}, "B18": {"name": "UGAAAGU (DNA:RNA)", "RNA": "B5 RNA with A25U, U27A, G28A, G29A, U30G, G31U", "DNA 1": "CAATCTGAATTCCGGTCTCCC", "DNA 2": "TGGTGGCTACGACGGGATT"}, "B19": {"name": "CGAGGCC (DNA:RNA)", "RNA": "B5 RNA with A25C, U27A, U30C, G31C", "DNA 1": "CAATCTGAATTCCGGTCTCCC", "DNA 2": "TGGTGGCTACGACGGGATT"}, "B20": {"name": "AGAUUCU (DNA:RNA)", "RNA": "B5 RNA with U27A, G28U, G29U, U30C, G31U", "DNA 1": "CAATCTGAATTCCGGTCTCCC", "DNA 2": "TGGTGGCTACGACGGGATT"}, "B21": {"name": "GGCCCUU (DNA:RNA)", "RNA": "B5 RNA with A25G, U27C, G28C, G29C, G31U", "DNA 1": "CAATCTGAATTCCGGTCTCCC", "DNA 2": "TGGTGGCTACGACGGGATT"}, "B22": {"name": "ACUCGGA (DNA:RNA)", "RNA": "B5 RNA with G26C, G28C, U30G, G31A", "DNA 1": "CAATCTGAATTCCGGTCTCCC", "DNA 2": "TGGTGGCTACGACGGGATT"}, "B23": {"name": "ACUGAUC (DNA:RNA)", "RNA": "B5 RNA with G26C, G29A, G31C", "DNA 1": "CAATCTGAATTCCGGTCTCCC", "DNA 2": "TGGTGGCTACGACGGGATT"}, "B24": {"name": "CAGCGGA (DNA:RNA)", "RNA": "B5 RNA with A25C, G26A, U27G, G28C, U30G, G31A", "DNA 1": "CAATCTGAATTCCGGTCTCCC", "DNA 2": "TGGTGGCTACGACGGGATT"}, "B25": {"name": "UUAUAGU (DNA:RNA)", "RNA": "B1 RNA with G25U, C26U, C27A, U29A, A30G, A31U", "DNA 1": "CAATCTGAATTCCGGTCTCCC", "DNA 2": "TGGTGGCTACGACGGGATT"}, "B26": {"name": "UCCCACU (DNA:RNA)", "RNA": "B1 RNA with G25U, U28C, U29A, A30C, A31U", "DNA 1": "CAATCTGAATTCCGGTCTCCC", "DNA 2": "TGGTGGCTACGACGGGATT"}, "B27": {"name": "CGGGACU (DNA:RNA)", "RNA": "B5 RNA with A25C, U27G, G29A, U30C, G31U", "DNA 1": "CAATCTGAATTCCGGTCTCCC", "DNA 2": "TGGTGGCTACGACGGGATT"}, "B28": {"name": "CAACGCU (DNA:RNA)", "RNA": "B5 RNA with A25C, G26A, U27A, G28C, U30C, G31U", "DNA 1": "CAATCTGAATTCCGGTCTCCC", "DNA 2": "TGGTGGCTACGACGGGATT"}, "B29": {"name": "GGGCCAA (DNA:RNA)", "RNA": "B1 RNA with C26G, C27G, U28C, U29C", "DNA 1": "CAATCTGAATTCCGGTCTCCC", "DNA 2": "TGGTGGCTACGACGGGATT"}, "B30": {"name": "ACCAAAC (DNA:RNA)", "RNA": "B1 RNA with G25A, U28A, U29A, A31C", "DNA 1": "CAATCTGAATTCCGGTCTCCC", "DNA 2": "TGGTGGCTACGACGGGATT"}, "B31": {"name": "CUGCCAG (DNA:RNA)", "RNA": "B5 RNA with A25C, G26U, U27G, G28C, G29C, U30A", "DNA 1": "CAATCTGAATTCCGGTCTCCC", "DNA 2": "TGGTGGCTACGACGGGATT"}},
  "note": "Residue numbers refer to the chain shown, from its start. Some of the results follow.",
  "data": [
    {"target": "T1, RBFOX1 RRM RbFoxmut (Fox-RRM*) (Homo sapiens, UniProt Q9NWB1 109-208, R118D;E147R;N151S;E152T)", "T1 sequence": "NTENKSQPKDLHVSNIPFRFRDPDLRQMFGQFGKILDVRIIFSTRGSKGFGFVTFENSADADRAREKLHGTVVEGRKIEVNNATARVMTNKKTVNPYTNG", "test": "EMSA; HiTS-Eq, 1 nM pool, 10 min; buffer printed only for the single-RNA assays: 10 mM Tris pH 7.5, 150 mM NaCl, 3.4 mM EDTA, 0.001% NP-40, 30 C", "conditions": "tags: His6 N-terminal (pET28a); label: 5' 32P", "in_short": "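Purified RbFox RRM, wild type or mutant, was incubated for 10 min in 50 µL with 1 nM of a 5′-radiolabelled RNA pool carrying 7 randomized nucleotides, whose flanks were annealed to DNA oligonucleotides, over a series of increasing protein concentrations. Unbound RNA was resolved on 8% native PAGE, cut out, reverse-transcribed, barcoded by PCR and sequenced on an Illumina HiSeq 2500. Relative association constants were derived from changes in read counts for each RNA species versus the control reaction and normalised to the cognate motif.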", "values": [
      {"binder": "B1", "binding signal": "0.0981 KA relative to UGCAUGU"},
      {"binder": "B2", "binding signal": "0.155 KA relative to UGCAUGU"},
      {"binder": "B3", "binding signal": "0.302 KA relative to UGCAUGU"},
      {"binder": "B4", "binding signal": "0.0986 KA relative to UGCAUGU"},
      {"binder": "B5", "binding signal": "0.171 KA relative to UGCAUGU"},
      {"binder": "B6", "binding signal": "0.0878 KA relative to UGCAUGU"},
      {"binder": "B7", "binding signal": "0.155 KA relative to UGCAUGU"},
      {"binder": "B8", "binding signal": "0.0911 KA relative to UGCAUGU"},
      {"binder": "B9", "binding signal": "0.0887 KA relative to UGCAUGU"},
      {"binder": "B10", "binding signal": "0.114 KA relative to UGCAUGU"},
      {"binder": "B11", "binding signal": "0.123 KA relative to UGCAUGU"},
      {"binder": "B12", "binding signal": "0.0982 KA relative to UGCAUGU"},
      {"binder": "B13", "binding signal": "0.052 KA relative to UGCAUGU"},
      {"binder": "B14", "binding signal": "0.0555 KA relative to UGCAUGU"},
      {"binder": "B15", "binding signal": "0.103 KA relative to UGCAUGU"},
      {"binder": "B16", "binding signal": "0.0799 KA relative to UGCAUGU"},
      {"binder": "B17", "binding signal": "0.192 KA relative to UGCAUGU"},
      {"binder": "B18", "binding signal": "0.072 KA relative to UGCAUGU"},
      {"binder": "B19", "binding signal": "0.179 KA relative to UGCAUGU"},
      {"binder": "B20", "binding signal": "0.0883 KA relative to UGCAUGU"},
      {"binder": "B21", "binding signal": "0.0552 KA relative to UGCAUGU"},
      {"binder": "B22", "binding signal": "0.0986 KA relative to UGCAUGU"},
      {"binder": "B23", "binding signal": "0.0619 KA relative to UGCAUGU"},
      {"binder": "B24", "binding signal": "0.0726 KA relative to UGCAUGU"},
      {"binder": "B25", "binding signal": "0.102 KA relative to UGCAUGU"},
      {"binder": "B26", "binding signal": "0.065 KA relative to UGCAUGU"},
      {"binder": "B27", "binding signal": "0.0898 KA relative to UGCAUGU"},
      {"binder": "B28", "binding signal": "0.117 KA relative to UGCAUGU"},
      {"binder": "B29", "binding signal": "0.0698 KA relative to UGCAUGU"},
      {"binder": "B30", "binding signal": "0.0457 KA relative to UGCAUGU"},
      {"binder": "B31", "binding signal": "0.0817 KA relative to UGCAUGU"}
    ]}
  ]
}
